This sample is rich in variants without activity.
B1: glmS ribozyme (parent)
chain: AUAAAAGCGCCAGAACUACAGAAAUGUAGUUGACGAGGAGGAGGUUUAUCGAAUUUUCGGCGGAUGCCUCCAAA

Legend:
Settings in all cases: with glucosamine-6-phosphate
[1] = variants of: B1; experiment: self-cleavage kobs at 40 uM GlcN6P; higher = faster cleavage; RNA array
In short: (§1)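 Sequenced MiSeq chips were the platform: E. coli RNA polymerase transcribed barcoded ribozyme variants on them in situ, and a hybridised Cy3 probe tracked these at 37 °C. After glucosamine-6-phosphate (40 μM to 10 mM) in HEPES/KCl/Mg(OAc)2 buffer was flowed in, tiles were imaged over ~14 h. Signals normalised to baseline and to non-cleaving reference variants were reduced to per-tile medians and fit to one- or two-exponential decays to obtain kobs. kcat and KM were derived through weighted Michaelis–Menten fits across concentrations.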

[2] = variants of: B1; experiment: self-cleavage kobs at 2500 uM GlcN6P; higher = faster cleavage; RNA array
In short: as §1

[3] = variants of: B1; experiment: self-cleavage kobs at 10000 uM GlcN6P; higher = faster cleavage; RNA array
In short: as §1

[4] = variants of: B1; experiment: self-cleavage kobs at 640 uM GlcN6P; higher = faster cleavage; RNA array
In short: as §1

[5] = variants of: B1; experiment: self-cleavage kobs at 160 uM GlcN6P; higher = faster cleavage; RNA array
In short: as §1

Row | Variant | self-cleavage kobs at 40 uM GlcN6P [1] [s⁻¹] | self-cleavage kobs at 2500 uM GlcN6P [2] [s⁻¹] | self-cleavage kobs at 10000 uM GlcN6P [3] [s⁻¹] | self-cleavage kobs at 640 uM GlcN6P [4] [s⁻¹] | self-cleavage kobs at 160 uM GlcN6P [5] [s⁻¹]
1 | AUAAAAGCGCCAGAACUACAGAAAUGUAGUUGACGAUGUGUAGGUUUAUCGAAUUUUCGGCGGAUGCCUCCAAA | < 1e-05 | < 1e-05 | < 1e-05 | – | –
2 | AUAAAAGCGCCAGAACUACAGAAAUGUAGUUGACGAUGAUGAGGUUUAUCGAAUUUUCGUCGGAUGCCUCCAAA | < 1e-05 | – | < 1e-05 | < 1e-05 | –
3 | AUAAAAGCGCCAGAACUACAGAAAUGUAGUUGACGAUGAGGAGGUUUAUCGAAUUUUCGACGGAUGCCUCCAAA | < 1e-05 | – | – | < 1e-05 | –
4 | AUAAAAGCGCCAGAACUACAGAAAUGUAGUUGACGACGAGGAGGUUGAUCGAAUUUUCGGCGGAUGCCUCCAAA | < 1e-05 | – | – | – | –
5 | AUAAAAGCGCCAGAACUACAGAAAUGUAGUUGACGACGAGGAGGUUUAUCGAAUUUGCGGCGGAUGUCUCCAAA | < 1e-05 | – | – | – | –
6 | AUAAAAGCGCCAGAACUACAGAAAUGUAGUUGACGACGAGGAGGUUUAUCGAAUUAUCGGCGGAUGCCUCCAAA | < 1e-05 | – | – | – | –
7 | AUAAAAGCGCCAGAACUACAGAAAUGUAGUUGACGAUGAGGAGUUUUAUCGAAUUUUCGGCGGAUGCCUCCAAA | < 1e-05 | – | < 1e-05 | < 1e-05 | < 1e-05
8 | AUAAAAGCGCCAGAACUACAGAAAUGUAGUUGACGAGAAGGUGUUUUGUCGAAUUUUCGGCGGAUGCCUCCAAA | < 1e-05 | – | – | – | –
9 | AUAAAAGCGCCAGAACUACAGAAAUGUAGUUGACGACGAGGAGGUUUAUCGAAUUUUCGGCGGAGGCCGCCAAA | < 1e-05 | – | – | – | –
10 | AUAAAAGCGCCAGAACUACAGAAAUGUAGUUGACGAUGAGGAGGUUUAUCUAAUUUUCGGCGGAUGCCUCCAAA | < 1e-05 | – | – | – | –
11 | AUAAAAGCGCCAGAACUACAGAAAUGUAGUUGACGAUGAGGAGGUUUAUCGAAUUUUUGGCGAAUGCCUCCAAA | < 1e-05 | – | – | – | –
12 | AUAAAAGCGCCAGAACUACAGAAAUGUAGUUGACGAUGAGGAGGUUUAUCGAAUAUUCGGCGGAUGCCUCCAAA | < 1e-05 | < 1e-05 | – | < 1e-05 | < 1e-05
13 | AUAAAAGCGCCAGAACUACAGAAAUGUAGUUGACGACGAGGAGGUUUAUCGAAACUUCGGCGCAUGCCGCCAAA | < 1e-05 | – | < 1e-05 | – | –
14 | AUAAAAGCGCCAGAACUACAGAAAUGUAGUUGACGACGAGGAGGUCUAUCGAAUUUUCGGCGGAUGCCUCCAAA | < 1e-05 | – | – | – | –
15 | AUAAAAGCGCCAGAACUACAGAAAUGUAGUUGACGACGAGGAGGAUUAUCGAAUUUUCGGCGGAUGCCUGCAAA | < 1e-05 | – | < 1e-05 | – | –
16 | AUAAAAGCGCCAGAACUACAGAAAUGUAGUUGACGAUGAGGAGGUUUAUCGAAUUUUCGGCGGAUGCCUCUAAA | < 1e-05 | – | – | < 1e-05 | –
17 | AUAAAAGCGCCAGAACUACAGAAAUGUAGUUGACGAUGAGGAGAUCUAUCGAAUUUUCGGCGAAUGCCUCCAAA | < 1e-05 | – | – | – | –
18 | AUAAAAGCGCCAGAACUACAGAAAUGUAGUUGACGAGAAGGAGGUUUAUCGAAUUUUCGGGGGAUGCCUCCAAA | < 1e-05 | – | – | – | –
19 | AUAAAAGCGCCAGAACUACAGAAAUGUAGUUGACGACGAGGAGGUUUAUCGAAUUCUCGGCGGAUUCCUCCAAA | < 1e-05 | – | < 1e-05 | – | –

Row | Variant | self-cleavage kobs at 40 uM GlcN6P [1] [s⁻¹] | self-cleavage kobs at 2500 uM GlcN6P [2] [s⁻¹] | self-cleavage kobs at 10000 uM GlcN6P [3] [s⁻¹] | self-cleavage kobs at 640 uM GlcN6P [4] [s⁻¹] | self-cleavage kobs at 160 uM GlcN6P [5] [s⁻¹]
20 | AUAAAAGCGCCAGAACUACAGAAAUGUAGUUGACGACGAGGAGUUGUAUCGAAUUUUCGGCGGAUGCCUCGAAA | < 1e-05 | – | – | – | –
21 | AUAAAAGCGCCAGAACUACAGAAAUGUAGUUGACGAUGAAGAGGUUUAUCGAAUUUUCGGCGGAUGCCUCCAAA | < 1e-05 | – | – | < 1e-05 | < 1e-05
22 | AUAAAAGCGCCAGAACUACAGAAAUGUAGUUGACGAGAAGGCGGUUUAUCGAAUUUUCGGCGGAUGACUCCAAA | < 1e-05 | – | – | – | –
23 | AUAAAAGCGCCAGAACUACAGAAAUGUAGUUGACGAUGAGGAGGUUUAUCGAAUUUUCCGCGGAUGCCUCCAAA | < 1e-05 | – | < 1e-05 | < 1e-05 | –
24 | AUAAAAGCGCCAGAACUACAGAAAUGUAGUUGACGAUCAGAAGGUUUAUCGAAUUUUCGGCGGAUGCCUCCAAA | < 1e-05 | < 1e-05 | – | < 1e-05 | –
25 | AUAAAAGCGCCAGAACUACAGAAAUGUAGUUGACGAGAAGGAGGUUUUUCGAAUUCUCGGCGGAUGCCUCCAAA | < 1e-05 | – | < 1e-05 | – | –
26 | AUAAAAGCGCCAGAACUACAGAAAUGUAGUUGACGAUGAGGAGGUUUAGCGAAUUUUCGGCGGAUGCCUCCAAA | < 1e-05 | – | < 1e-05 | – | < 1e-05
27 | AUAAAAGCGCCAGAACUACAGAAAUGUAGUUGACGAGAAGGUGGUUUAUCGAAUUUUCGGCGGAUGCCUCCAAA | < 1e-05 | – | – | – | –
28 | AUAAAAGCGCCAGAACUACAGAAAUGUAGUUGACGAGAAGGAGGUUUAUCGAAUUUUCGGCGGAUGGCUCCAAA | < 1e-05 | – | < 1e-05 | – | < 1e-05
29 | AUAAAAGCGCCAGAACUACAGAAAUGUAGUUGACGACGAGUAGGUCUAUCGAAUUUUCGGCGGAUGCCUCCAAA | < 1e-05 | – | – | – | –
30 | AUAAAAGCGCCAGAACUACAGAAAUGUAGUUGACGAGAAGGAGGUUUAUCGAAUUUUUGGCGGAUGCCCCCAAA | < 1e-05 | – | < 1e-05 | – | –
31 | AUAAAAGCGCCAGAACUACAGAAAUGUAGUUGACGAGAAGGAGGUUUAUCGAGUUUUCGGCGGAUGCCUCCAAA | < 1e-05 | – | – | < 1e-05 | –
32 | AUAAAAGCGCCAGAACUACAGAAAUGUAGUUGACGACGAGGAGGUUUAUCGAAUCUUCGGCGGAUGCCUCCAAA | < 1e-05 | – | – | – | –
33 | AUAAAAGCGCCAGAACUACAGAAAUGUAGUUGACGACGAGGAGGUUUAUCGAAUUUUCGGCGAGUGCCUCCAAA | < 1e-05 | < 1e-05 | – | < 1e-05 | < 1e-05
34 | AUAAAAGCGCCAGAACUACAGAAAUGUAGUUGACGACGAGGAGGUUUAUCGAAUUCUUGGCGGAUGUCUCCAAA | < 1e-05 | – | – | – | –
35 | AUAAAAGCGCCAGAACUACAGAAAUGUAGUUGACGACGAGGAUGUUUAUCGAAUUUUCGGCGGAUGCCUCCAAA | < 1e-05 | < 1e-05 | – | – | < 1e-05
36 | AUAAAAGCGCCAGAACUACAGAAAUGUAGUUGACGAUGAGUAGGUUUAUCGAAUUUUCGGCGUGCGCCUCCAAA | < 1e-05 | < 1e-05 | < 1e-05 | < 1e-05 | –
37 | AUAAAAGCGCCAGAACUACAGAAAUGUAGUUGACGACGAGGAGGUUUAUCGAAUUUUCAGCGGAUGCCUCCAAA | < 1e-05 | – | – | – | –
38 | AUAAAAGCGCCAGAACUACAGAAAUGUAGUUGACGACGAGGAGGUUGAUCAAAUUUUCGGCGGAUGCCUCCAAA | < 1e-05 | – | – | < 1e-05 | < 1e-05
